Where two headings read alike, the source gives them in different places.
Tests used:
SARS-CoV-2 NSP14 [1] = molecular target: T1, SARS-CoV-2 NSP14 (Severe acute respiratory syndrome coronavirus 2, UniProt P0DTD1); assay: biochemical; conditions: for NSP14 SARS COV2 : Hill slope: Sheet2
SARS-CoV-2 NSP14 [2] = molecular target: T1, SARS-CoV-2 NSP14; conditions: for ∆TM (°C) / Average Tm NSP14 (ºC) + compound + SAH: HTS hits; for Average Tm NSP14 (ºC) + compound + SAH: NSP14 + SAH 48.0; for TM Replicate 1 (ºC) (NSP14+SAH+cmpd): NSP14+SAH 47; for TM Replicate 1 (ºC) (NSP14+SAH+cmpd) / TM (ºC) (NSP14+compound): SBVS hits; for TM (ºC) (NSP14+compound): NSP14 alone 43
[3] = 0.75 h, read-out: NSP14 SARS COV2 : Maximum measured (%)
[4] = HTS hits, Suppl. Table 3 Sheet1, read-out: IC50
[5] = Sheet1, NSP14+SAH+compound vs NSP14+SAH
[6] = LUM % inhibition, read-out: SARS-CoV-2 NSP14 inhibition: IC50
[7] = LUM % inhibition, read-out: SARS-CoV-2 NSP14 inhibition: Maximum response
[8] = fit of concentration-response curve
[9] = n = 3, read-out: IC50 for the inhibition of SARS-CoV-2 NSP14 (95% CI)

| SMILES | Emax (SARS-CoV-2 NSP14 [1]; [3]) | NSP14 SARS COV2 : Hill slope (SARS-CoV-2 NSP14 [1]; HTS hits) | IC50 (SARS-CoV-2 NSP14 [1]; [4]) | IC50 (SARS-CoV-2 NSP14 [1]; HTS hits, Suppl. Table 3 Sheet2, read-out: NSP14 SARS COV2 : IC50) | ∆TM (°C) (SARS-CoV-2 NSP14 [2]; [5]) | ∆TM (°C) (SARS-CoV-2 NSP14 [2]; Sheet2, compound + SAH vs SAH) | Average Tm NSP14 (ºC) + compound + SAH (SARS-CoV-2 NSP14 [2]) | IC50 (SARS-CoV-2 NSP14 [1]; [6]) | Emax (SARS-CoV-2 NSP14 [1]; [7]) | SARS-CoV-2 NSP14 inhibition: Hill slope (SARS-CoV-2 NSP14 [1]; SBVS hits) | SARS-CoV-2 NSP14 inhibition: Hill slope (SARS-CoV-2 NSP14 [1]; [8]) | IC50 (SARS-CoV-2 NSP14 [1]; [9]) | TM Replicate 1 (ºC) (NSP14+SAH+cmpd) (SARS-CoV-2 NSP14 [2]) | TM (ºC) (NSP14+compound) (SARS-CoV-2 NSP14 [2]) |
| --- | --- | --- | --- | --- | --- | --- | --- | --- | --- | --- | --- | --- | --- | --- |
| COc1ccc2nc(-c3ccc(NS(=O)(=O)c4ccc5c(c4)CC(=O)N5C)cc3)sc2c1 [RU-0385437, COC1=CC=C2N=C(C3=CC=C(NS(=O)(=O)C4=CC=C5N(C)C(=O)CC5=C4)C=C3)SC2=C1] | 92% | 1.23 | 1.58 µM | 1.8 µM | 0.8 °C | 0.8 °C | 48.8 ºC | – | – | – | – | – | – | – |
| COc1ccc(-c2ocnc2C(=O)Nc2ccc3oc(=O)n(CC(=O)N4CCCCC4)c3c2)cc1 [RU-0833661, COC1=CC=C(C2=C(C(=O)NC3=CC=C4OC(=O)N(CC(=O)N5CCCCC5)C4=C3)N=CO2)C=C1] | – | – | – | – | – | – | – | 9.42 µM | 74.4% | 1.5 | 1.5 | ≤ 10 µM | 46.5 ºC | 43 ºC |
| Cc1cnc(C(C)NC(=O)c2ccc(CNC(=O)c3ccc(O)c(C)c3)cn2)nc1 (stereo not drawn) [RU-0834184, CC1=CN=C(C(C)NC(=O)C2=NC=C(CNC(=O)C3=CC=C(O)C(C)=C3)C=C2)N=C1] | – | – | – | – | – | – | – | 6.76 µM | 84.2% | 1.05 | 1.05 | 6.8 µM | 48 ºC | 43 ºC |
| CN(C)c1ccc(N2C(=O)CSC2c2cccc(NC(=O)Cc3cccs3)c2)cc1 (stereo not drawn) [RU-0054512, N(C(CC1=CC=CS1)=O)C1=CC=CC(C2SCC(=O)N2C2=CC=C(N(C)C)C=C2)=C1] | 83.6% | 1 | 5.46 µM | – | 1.5 °C | 1.5 °C | 49.5 ºC | – | – | – | – | – | – | – |

Source: PMC12434519 (ACS Medicinal Chemistry Letters, 2025)
